# Reference: paper PMC3514547 (Biochemistry, 2012)
# Tests used:
# [1] = target: T1, Pot1pN_F88A (Schizosaccharomyces pombe, UniProt O13988, F88A); details: ITC
# [2] = target: T2, DNA-binding domain of Cdc13 (Saccharomyces cerevisiae, UniProt P32797); experiment: ITC of CR binding to Cdc13-DBD; details: 2.1 mM CR titrated into 88 μM protein, triplicate
# T2 sequence (P32797 500-686 limits assumed): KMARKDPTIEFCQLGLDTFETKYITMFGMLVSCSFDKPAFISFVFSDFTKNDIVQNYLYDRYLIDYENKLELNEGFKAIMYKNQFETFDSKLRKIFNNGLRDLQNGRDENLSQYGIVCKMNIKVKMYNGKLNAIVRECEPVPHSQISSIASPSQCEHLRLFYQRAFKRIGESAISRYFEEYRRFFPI
# [3] = target: T1, Pot1pN_F88A; experiment: biochemical
compound,measurement,setting,value
"Nc1c(/N=N/c2ccc(-c3ccc(/N=N/c4cc(S(=O)(=O)O)c5ccccc5c4N)cc3)cc2)cc(S(=O)(=O)O)c2ccccc12 [CR, Congo red]","reduction in binding affinity, F88A vs Pot1pN",[1],> 10 fold
same,"unfavorable change in ΔH, F88A vs Pot1pN",[1],~ 4 kcal/mol
same,ΔH,"[1]; 20 °C, F88A mutant",-6.0 ± 0.1 kcal/mol
same,binding to Cdc13 by ITC,[2],no binding
same,Kd,[3],9.6 ± 0.2 µM
